# “And” between values parts separate entries of the source, which are not always exact repeats. Identical values can stand only once. About 6,400 (1.6%) of roughly 410,000 compounds were called active. The inconclusive results got no clear call from the source; some entries with a clear call stand among them for comparison. Calls follow the shape of the dose curve; as a rule, active = well fitted inhibition curve with a large enough effect; inconclusive = small, poorly fitted or top-dose-only effect; inactive = no such curve, though single readings can be large or run the other way. Where the call is inconclusive, the potency comes from a doubtful curve fit.
# Target: Glucagon-like peptide 1 receptor (Homo sapiens) (UniProt P43220)
# Assay: qHTS of GLP-1 Receptor Inverse Agonists (Inhibition Mode); also: nearly all actives have a fitted effect of over 55% in size
# Conditions: HEK293 GLP-1R CRE-luciferase, luminescence, 24 h, GLP-1R form is constitutively active; series mostly up to 38.3 µM
# Outline: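 Cells are plated, allowed 12 hours at 37 deg C, then treated with compounds for 24 hr before luciferase detection reagent is added and luminescence is read after 12 min at room temperature. The HEK293 line carries constitutively active GLP-1R with a cAMP-responsive reporter.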
# Potency is read from the fitted curve at half-maximal effect; tags tell the direction and shape of the fitted curve.
# Chain of UniProt P43220 (P43220 whole entry, looked up): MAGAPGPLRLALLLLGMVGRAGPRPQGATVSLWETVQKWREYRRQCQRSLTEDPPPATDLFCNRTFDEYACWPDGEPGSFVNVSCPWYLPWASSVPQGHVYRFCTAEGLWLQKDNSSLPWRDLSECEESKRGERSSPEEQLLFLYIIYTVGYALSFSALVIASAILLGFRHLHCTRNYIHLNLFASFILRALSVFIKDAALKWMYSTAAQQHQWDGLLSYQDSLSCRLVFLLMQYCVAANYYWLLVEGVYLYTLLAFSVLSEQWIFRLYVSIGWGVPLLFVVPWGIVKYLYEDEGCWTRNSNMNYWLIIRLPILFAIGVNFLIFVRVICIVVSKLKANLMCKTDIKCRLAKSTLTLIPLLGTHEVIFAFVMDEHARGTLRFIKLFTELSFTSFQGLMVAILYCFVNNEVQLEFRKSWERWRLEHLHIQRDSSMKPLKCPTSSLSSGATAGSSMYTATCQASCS
row,Structure (SMILES),Potency
1,CC(C)CNC(=S)N1CCC(C(=O)c2ccc(Cl)cc2)CC1,"inconclusive: 28.2 µM [inhibitor, single point]"
2,S=C(NCc1ccccc1)NCc1cccc(CNC(=S)NCc2ccccc2)c1,"inconclusive: 11.2 µM [inhibitor, partial curve, poor fit]"
3,COc1ccc(CC(N)c2csc(Nc3cc(Oc4ccccc4)ncn3)n2)cc1 (centres undefined),inactive
4,Cc1nc2c(C(=O)N3CCN(c4ccccn4)CC3)cnn2c(C)c1Cc1cccc(Cl)c1,"inconclusive: 10 µM [inhibitor, partial curve]"
5,CCOc1ccc(OCC)c(NC(=O)CN2CCN(c3cccc(C)c3)CC2)c1,"inconclusive: 1 µM [inhibitor, full curve, poor fit]"
6,O=C1CC(C(=O)Nc2ccc(C(=O)O)cc2)C(c2ccccc2)O1 (centres undefined),inactive
7,CC(C)c1ccc(NC(=O)COc2nncc3ccccc23)cc1,"inconclusive: 12.6 µM [inhibitor, partial curve]"
8,Cc1ccc(C(C(=O)NC(C)(C)C)N(Cc2ccco2)C(=O)Cn2nnc(-c3cccs3)n2)cc1 (centres undefined),"inconclusive: 8.91 µM [inhibitor, partial curve, poor fit]"
9,Cc1ccc(NC(=O)CC(=O)c2ccc([N+](=O)[O-])cc2)cc1S(=O)(=O)Nc1cccc(Cl)c1,"inconclusive: 12.6 µM [inhibitor, single point]"
10,COc1ccc(N2CCC(CNC(=S)Nc3cc(C)ccc3C)C2)cc1 (centres undefined),"inconclusive: 10 µM [inhibitor, partial curve, poor fit]"
11,CCOC(=O)c1oc2ccc(Br)cc2c1CSc1nnc(C)s1,"inconclusive: 28.2 µM [inhibitor, single point]"
12,CSc1ccc(Cl)c(C(=O)OCC(=O)Nc2ccccc2OC(F)F)c1,inactive
13,CCc1ccc(N2CC(C(=O)Nc3cccc(S(=O)(=O)N4CCCC4)c3)CC2=O)cc1 (centres undefined),"inconclusive: 28.2 µM [inhibitor, single point]"
14,O=C(Nc1ccc(OC(F)(F)F)cc1)c1cc(S(=O)(=O)N2CCCCC2)ccc1N1CCOCC1,"inconclusive: 15.8 µM [inhibitor, single point]"
15,CC(C)CCN(Cc1ccco1)C(=O)c1cc2c(s1)-c1ccccc1OC2,"inconclusive: 7.94 µM [inhibitor, partial curve, poor fit]"
16,CN(C)S(=O)(=O)c1cccc(NC(=O)c2ccc(OC(F)(F)F)cc2)c1,"inconclusive: 7.08 µM [inhibitor, partial curve, poor fit]"
17,Cc1ccc(/C=C2\SC(=S)N(CCCC(=O)Nc3ccc(O)cc3)C2=O)cc1,"inconclusive: 28.2 µM [inhibitor, single point]"
18,CCC(C)NC(=O)CSC1=Nc2ccccc2C2=NC(c3ccccc3)C(=O)N12 (centres undefined),inactive
19,COc1ccc(OC)c(CN2CCN(C(=O)[C@@H](NC(=O)c3cccc(C)c3)C(C)C)CC2)c1,"inconclusive: 8.91 µM [inhibitor, partial curve]"
20,CCCN1CCC(=O)N(CCOc2ccccc2)CC1,inactive
21,COc1cccc(NC(=O)CN(C)C(=O)c2ccc(OCc3ccccc3)c(OC)c2)c1,"inconclusive: 11.2 µM [inhibitor, partial curve, poor fit]"
22,O=C(NCCc1ccccc1)c1cnc2n(c1=O)CCS2,inactive

row,Structure (SMILES),Potency
1,O=C(Cc1cccs1)N/N=C/C=C/c1ccccc1[N+](=O)[O-],"inconclusive: 31.6 µM [inhibitor, single point]"
2,Cc1cc2c(cc1NC(=O)c1ccccc1C)n(C)c(=O)c(=O)n2C,inactive
3,Cc1c(C(=O)N2CCCCC2)c(S(=O)(=O)Nc2cccc(Br)c2)c(C)n1C,"inconclusive: 28.2 µM [inhibitor, single point]"
4,CCC(Cc1ccccc1)NC(=O)CN1C(=O)COc2ccc(S(=O)(=O)N3CCCCCC3)cc21 (centres undefined),inactive
5,O=C(N/N=C/c1cc(Cl)ccc1O)c1cccnc1,"inconclusive: 1.26 µM [inhibitor, partial curve, poor fit]"
6,COc1ccccc1N1CCN(C(=O)C2CCN(S(=O)(=O)Cc3ccccc3)CC2)CC1,"inconclusive: 28.2 µM [inhibitor, single point]"
7,Cc1ccccc1N(CC(=O)N/N=C/c1ccc(N(C)C)cc1)C(=O)c1ccccc1,"inconclusive: 28.2 µM [inhibitor, single point]"
8,CC(=O)Nc1ccc(C(=O)NN2C(=O)NC3(CCCCC3)C2=O)cc1,"inconclusive: 0.447 µM [inhibitor, full curve, poor fit]"
9,CSc1ccccc1C(=O)N1CCCC(CCC(=O)NCc2ccc(F)c(F)c2)C1 (centres undefined),"inconclusive: 28.2 µM [inhibitor, single point]"
10,O=C(Cn1c(-c2ccco2)nc2ccccc21)N1CCCCC1,inactive
11,CCCC(C(=O)Nc1nccs1)c1ccccc1 (centres undefined),"inconclusive: 10 µM [inhibitor, partial curve, poor fit]"
12,C(=C\c1ccccc1)/CN1CCN(C(c2ccccc2)c2nnnn2-c2ccc3c(c2)OCCO3)CC1 (centres undefined),"inconclusive: 28.2 µM [inhibitor, single point]"
13,Cc1ccc(C(=O)Nc2cc(C(C)C)c(O)c(C(C)C)c2)cc1,active: 4.47 µM
14,COc1ccc(/C=N/NC(=O)c2cccc(Br)c2)cc1CSc1ccccn1,"inconclusive: 12.6 µM [inhibitor, partial curve, poor fit]"
15,Nc1ccc(OCc2ccccc2)cc1,inactive
16,COc1ccc(NC(=O)CSc2ccc3nc(-c4ccccc4)cn3n2)c(OC)c1,inactive
17,Cc1ccccc1NCc1nc2ccccc2n1C,"inconclusive: 10 µM [inhibitor, single point]"
18,CCc1ccc(NC(=O)CCn2c(=O)c3cccn3c3ccccc32)cc1,"inconclusive: 28.2 µM [inhibitor, single point] and inconclusive: 11.2 µM [inhibitor, single point]"
19,CCOc1ccc(S(=O)(=O)NCCC(=O)NC(C)CCc2ccccc2)cc1 (centres undefined),"inconclusive: 3.98 µM [inhibitor, full curve]"
20,O=C(c1ccco1)N1CCCC(N2CCN(c3cccc(C(F)(F)F)c3)CC2)C1 (centres undefined),"inconclusive: 11.2 µM [inhibitor, partial curve, poor fit]"
21,Oc1[nH]c2ccccc2c1N=Nc1ccccc1,inactive
22,CSc1cccc(NC(=O)c2cccc(N3CCCS3(=O)=O)c2)c1,inactive

row,Structure (SMILES),Potency
1,CCN(CC)S(=O)(=O)c1cccc(C(=O)NCC2CCCCC2)c1,"inconclusive: 10 µM [inhibitor, single point]"
2,O=C(CN(C(=O)c1csnn1)c1ccccc1C(F)(F)F)NCc1ccccc1,inactive
3,CCCCC[C@@H]1C=C(C(=O)O)[C@H](c2ccc(Br)cc2)N1S(=O)(=O)c1ccc(C)cc1,"inconclusive: 11.2 µM [inhibitor, single point]"
4,CC(C)(C)c1ccc(Oc2ccc(NC(=O)C3CC=CCC3C(=O)O)cc2)cc1 (centres undefined),"inconclusive: 3.16 µM [inhibitor, partial curve, poor fit]"
5,CCOc1ccc(N(CC(=O)N2CCCCCC2)S(=O)(=O)c2ccc(F)cc2)cc1,"inconclusive: 12.6 µM [inhibitor, partial curve]"
6,Clc1ccc(OCCOCCNCc2ccccc2)cc1Cl,"inconclusive: 12.6 µM [inhibitor, single point]"
7,COc1cc(C(F)(F)F)c(C(=O)N(C)Cc2ccc(Cl)c(Cl)c2)cn1,"inconclusive: 22.4 µM [inhibitor, single point]"
8,CC(C)(C)CC(=O)Nc1nnc(SCC(=O)Nc2ccccc2F)s1,"inconclusive: 6.31 µM [inhibitor, partial curve, poor fit]"
9,CC1CC(C)CN(S(=O)(=O)c2ccc(C(=O)N(C)Cc3ccccc3)cc2)C1 (centres undefined),"inconclusive: 10 µM [inhibitor, partial curve, poor fit]"
10,O=S(=O)(NCCc1c[nH]c2ccccc12)c1ccc(F)cc1,"inconclusive: 28.2 µM [inhibitor, single point]"
11,CCN(CC(=O)NCc1ccc(F)cc1)S(=O)(=O)c1ccc(Cl)s1,"inconclusive: 11.2 µM [inhibitor, partial curve, poor fit]"
12,COc1ccc2nc(SCC(=O)C(C)(C)C)[nH]c2c1,inactive
13,Cc1ccc(-c2c(CC(=O)O)c(C)nc3sc4c(c23)CCCC4)cc1,"inconclusive: 11.2 µM [inhibitor, partial curve, poor fit]"
14,CCOC(=O)c1[nH]c(CN2CCN(c3ccc(OC)cc3)CC2)c(C(=O)OCC)c1C,"inconclusive: 10 µM [inhibitor, partial curve, poor fit]"
15,Cc1onc(-c2c(Cl)cccc2Cl)c1C(=O)c1ccc(F)cc1,"inconclusive: 11.2 µM [inhibitor, partial curve, poor fit]"
16,CC12CCC(C(=O)O)(C/C1=N\O)C2(C)C (centres undefined),"inconclusive: 28.2 µM [inhibitor, single point]"
17,O=C(C1CCCN(S(=O)(=O)c2cccc3nsnc23)C1)N1CCN(c2ccccc2F)CC1 (centres undefined),inactive
18,CCOC(=O)c1[nH]c2ccc(OC)cc2c1NC(=O)NC(C)C,inactive
19,O=C(Nc1cccc(Cl)c1)Nc1cc(S(=O)(=O)N2CCOCC2)ccc1N1CCCC1,"inconclusive: 28.2 µM [inhibitor, single point]"
20,CCN1CCN(CCNC(=O)c2ccc3c(c2)N(Cc2cccc(Cl)c2)C(=O)c2ccccc2S3=O)CC1 (centres undefined),"inconclusive: 28.2 µM [inhibitor, single point]"

# Source: PubChem BioAssay AID624417 (National Center for Advancing Translational Sciences (NCATS), 2012)
